Target: T1, HER2 on MC38-HER2 cells (Homo sapiens (; inferred from …, UniProt P04626)
T1 construct: HER2, stably expressed on MC38 murine colon adenocarcinoma cells; source: HER2-transduced MC38 mouse colon cancer cells, stably expressing, on cells
Assay: flow cytometry on cells; MC38-HER2 cells stained with 100 nM αHER2 SwAb or αHER2-Fc, 4 °C 30 min; then with or without 10 μM Venetoclax, 37 °C 1 h; detected with A647 anti-human Fc antibody
Settings: one partner purified

B1: Fc-fused αHER2 (conventional αHER2 antibody) (Fc fusion)
VH: EVKLVESGGGLVQPGGSLRLSCATSGFNIKDTYIHWVRQAPGKGLEWVARIYPTNGYTRYADSVKGRFTISADTSKNTAYLQMNSLRAEDTAVYYCSRWGGDGFYAMDYWGQGTTVTVSS
VL: [about 100 residues not spelt out]
notes: also called αHER2-Fc
  binding result: binds
